Measured values: patent publication US20250057968A1, “ANTI-DLL3 ANTIBODY AND PHARMACEUTICAL USE THEREOF, AND ANTIBODY-DRUG CONJUGATE CONTAINING ANTI-DLL3 ANTIBODY” (Jiangsu Hengrui Pharmaceuticals Co., Ltd., priority 2021, published 2025)

T1: human DLL3 (Homo sapiens, UniProt Q9NYJ7)
T1 construct: purchased ACRO DLL3-H52H4
T1 sequence (Q9NYJ7 27-492 limits assumed): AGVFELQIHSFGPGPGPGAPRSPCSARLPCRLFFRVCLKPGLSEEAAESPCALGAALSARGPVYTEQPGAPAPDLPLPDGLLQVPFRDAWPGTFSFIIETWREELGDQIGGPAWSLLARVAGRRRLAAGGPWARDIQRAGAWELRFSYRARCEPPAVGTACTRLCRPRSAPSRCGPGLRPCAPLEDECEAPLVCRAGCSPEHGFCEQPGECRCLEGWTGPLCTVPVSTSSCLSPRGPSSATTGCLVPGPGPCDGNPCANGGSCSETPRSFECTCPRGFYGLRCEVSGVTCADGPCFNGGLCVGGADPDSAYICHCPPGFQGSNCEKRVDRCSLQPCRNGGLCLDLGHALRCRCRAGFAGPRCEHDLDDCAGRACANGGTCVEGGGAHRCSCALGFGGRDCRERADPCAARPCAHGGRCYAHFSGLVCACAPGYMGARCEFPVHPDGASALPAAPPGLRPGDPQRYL

T2: mouse DLL3 (Mus musculus, UniProt O88516)
T2 construct: purchased KACTUS DLL-MM103
T2 sequence (O88516 33-592): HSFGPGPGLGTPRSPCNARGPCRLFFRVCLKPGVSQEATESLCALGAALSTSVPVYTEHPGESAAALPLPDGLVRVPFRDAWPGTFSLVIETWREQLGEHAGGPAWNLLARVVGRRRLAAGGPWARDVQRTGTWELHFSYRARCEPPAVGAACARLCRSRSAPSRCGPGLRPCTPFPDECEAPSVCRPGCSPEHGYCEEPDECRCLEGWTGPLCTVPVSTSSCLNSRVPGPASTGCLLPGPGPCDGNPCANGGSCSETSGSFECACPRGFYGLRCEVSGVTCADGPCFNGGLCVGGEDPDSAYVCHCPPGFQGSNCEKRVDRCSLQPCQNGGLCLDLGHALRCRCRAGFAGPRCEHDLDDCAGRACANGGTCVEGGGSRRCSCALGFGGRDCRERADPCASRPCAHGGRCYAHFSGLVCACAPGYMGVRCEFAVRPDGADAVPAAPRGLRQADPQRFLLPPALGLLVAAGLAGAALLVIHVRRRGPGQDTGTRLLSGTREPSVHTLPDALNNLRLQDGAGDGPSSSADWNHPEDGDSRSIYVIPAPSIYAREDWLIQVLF

B1: Hu100: humanized anti-DLL3 antibody, heavy chain SEQ ID NO: 60, light chain SEQ ID NO: 61 (hAb100VH1 + hAb100VL1) (antibody)
heavy: EVQLVESGGGLVKPGGSLRLSCAASGFTFSDSGMHWIRQAPGKGLEWVSYISSGSSTIHYADTVKGRFTISRDNAKNSLYLQMNSLRAEDTAVYYCASPLYYYGRSYNAVAYWGQGTTVTVSS[human IgG1 constant region not written out]
light: DIQMTQSPSSLSASVGDRVTITCHASQNINVWLSWYQQKPGKVPKLLIYKASDLHTGVPSRFSGSGSGTDFTLTISSLQPEDVATYYCQQGQSYPLTFGGGTKVEIKRTVAAPSVFIFPPSDEQLKSGTASVVCLLNNFYPREAKVQWKVDNALQSGNSQESVTEQDSKDSTYSLSSTLTLSKADYEKHKVYACEVTHQGLSSPVTKSFNRGEC
modifications: Hu100
B2: Hu6: humanized anti-DLL3 antibody, heavy chain SEQ ID NO: 58, light chain SEQ ID NO: 59 (hAb6VH12 + hAb6VL4) (antibody)
heavy: EVQLVQSGSELKKPGASVKVSCKASGYTFTDYYMNWVRQAPGQGLEWMGIINPYSGVTIYNHKFKGRFALSVDKSSNTAYLQISSLKAEDTAVYYCARQDSLLDYAMDYWGQGTTVTVSS[human IgG1 constant region not written out]
light: DIQMTQSPSSLSASVGDRVTITCHASQGISGNMGWLQQKPGKAPKGLIYHGANLEDGVPSRFSGSGSGADYTLTISSLQPEDFADYYCVQYAQFPYTFGGGTKVEIKRTVAAPSVFIFPPSDEQLKSGTASVVCLLNNFYPREAKVQWKVDNALQSGNSQESVTEQDSKDSTYSLSSTLTLSKADYEKHKVYACEVTHQGLSSPVTKSFNRGEC
modifications: Hu6

How the values were obtained:
[1] = target: T3, human DLL4/CHO-s cells (Homo sapiens, UniProt Q9NR61); test: DLL4 binding assay (FACS)
T3 construct: Human DLL4 full-length protein; expressed in transfected cells; host or cells: CHO-s (Invitrogen, R80007)
Protocol: Stably transfected human DLL1/CHO-s and human DLL4/CHO-s cells were suspended at 1×10^6/mL in FACS buffer (containing 1% BSA and pH 7.4 PBS), and the cell suspensions were added to a 96-well round-bottom plate (Corning, 3795) at 100 µL/well. The plate was centrifuged at 300 g for 5 min, and the supernatant was removed. Test antibodies were added at 100 μL/well, and the plate was incubated in the dark in a refrigerator at 4° C. for 1 h. After 3 washes by centrifugation at 300 g, working concentrations of PE F(ab′)2-goat anti-human IgG Fc secondary antibody (invitrogen, H10104) were added. The plate was incubated in the dark in a refrigerator at 4° C. for 40 min. After 3 washes by centrifugation at 300 g, the geometric mean fluorescence intensity was measured on an Invitrogen flow cytometer.

[2] = target: T1, human DLL3; test: Biacore antibody affinity assay, human DLL3; assay type: binding
Source text: (§1) Test antibodies were affinity-captured with a Protein A biosensor chip (Cat. #29127556, Cytiva) for 18 seconds, and then the antigens human DLL3 (ACRO, DLL3-H52H4), cynomolgus monkey DLL3 (KACTUS, DLL-RM103), and mouse DLL3 (KACTUS, DLL-MM103) were allowed to flow over the surface of the chip for 180 seconds, followed by 600 seconds of dissociation. Reaction signals were detected in real time using a Biacore 8K (Cytiva) instrument to obtain association and dissociation curves. After the dissociation in each experimental cycle, the biosensor chip was washed and regenerated with a 10 mM glycine-hydrochloric acid solution (pH 1.5) (Cat. #BR-1003-54, Cytiva). A 1:1 model was fit to the data. The results are shown in Table 12-1, Table 12-2, and Table 12-3.

[3] = target: cynomolgus monkey DLL3; test: Biacore antibody affinity assay, cynomolgus monkey DLL3; assay type: binding
Source text: as §1

[4] = target: T2, mouse DLL3; test: Biacore antibody affinity assay, mouse DLL3; assay type: binding
Source text: as §1

[5] = tested on: DMS53/DLL3 cells; test: Assay for endocytic activity of anti-DLL3 antibodies (DT3C cell killing); assay type: cell-based, human

T3 sequence (Q9NR61 27-685): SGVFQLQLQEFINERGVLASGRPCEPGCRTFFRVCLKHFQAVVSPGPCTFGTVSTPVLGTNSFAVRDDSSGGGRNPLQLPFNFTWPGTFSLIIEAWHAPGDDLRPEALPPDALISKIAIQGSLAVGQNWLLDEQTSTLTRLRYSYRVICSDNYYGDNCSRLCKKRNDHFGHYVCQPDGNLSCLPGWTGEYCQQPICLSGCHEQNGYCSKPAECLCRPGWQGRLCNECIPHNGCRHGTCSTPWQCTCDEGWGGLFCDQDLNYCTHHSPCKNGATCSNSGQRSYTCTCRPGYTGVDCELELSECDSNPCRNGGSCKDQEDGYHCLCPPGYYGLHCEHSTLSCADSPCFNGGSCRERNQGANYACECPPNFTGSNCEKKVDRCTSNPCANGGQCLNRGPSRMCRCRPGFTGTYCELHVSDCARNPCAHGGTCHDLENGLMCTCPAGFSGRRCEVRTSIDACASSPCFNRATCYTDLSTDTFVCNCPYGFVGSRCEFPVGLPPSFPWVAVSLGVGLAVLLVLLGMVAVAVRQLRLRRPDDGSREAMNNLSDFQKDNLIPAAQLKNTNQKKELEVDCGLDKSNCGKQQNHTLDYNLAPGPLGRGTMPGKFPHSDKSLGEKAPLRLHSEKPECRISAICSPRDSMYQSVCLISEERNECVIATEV

| Molecule | binding to human DLL4 [1] | ka [2] | kd [2] | Kd [3] | binding to mouse DLL3 (in words) [4] | KD (M) ([4]; mouse DLL3) | endocytosis by cells (in words) [5] |
| --- | --- | --- | --- | --- | --- | --- | --- |
| B1 | neither antibody Hu6 nor Hu100 bound | 858000 M⁻¹ s⁻¹ | 0.000374 s⁻¹ | 1.11 nM | did not bind | No binding | can be endocytosed by cells |
| B2 | neither antibody Hu6 nor Hu100 bound | 2.06e+06 M⁻¹ s⁻¹ | 0.000805 s⁻¹ | 1.31 nM | – | – | can be endocytosed by cells |
